# Measured values: the supplement of paper PMC8728848
# The list shows a part of the results.
# B1: LTL (Lotus tetragonolobus), P19664 (protein)
# chain: VSFNYTEFKDDGSLILQGDAKIWTDGRLAMPTDPLVNNPKTTRSAGRALYATPVPIWDSATGNVASFVTSFNFLFVIRELKYTPTDGLVFFLAPVGTEIPSGSTGGFLGIFDGSNGFNQFVAVEFDSYHNIWDPKSLRSSHVGIDVNSIMSLKAVNWNRVSGSLEKATIIYDSQTNILSVVMTSQNGQITTIYGTIDLKTVLPEKVSVGFSATTGNPEREKHDIYSWSFTSTLKEPEEQA
# Tests used:
# Assay in all cases: glycan array binding signal (z-score within array); higher = stronger binding
# Details in all cases: glycan notation: IUPAC condensed, linker removed
# [1] = biological target: Gal(b1-3)GlcNAc(b1-6)Gal(b1-4)GlcNAc
# How it was run: (§1)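 Glycan array data were curated from 3228 arrays in the Consortium for Functional Glycomics database and kept only where the protein sequence was available. Glycan names were converted to IUPAC-condensed notation, and columns mapping to the same glycan were averaged. The binding signal is a within-array Z-score, averaged across arrays of the same protein sequence at different concentrations or buffers and across linkers. Negative Z-scores can be read as non-binding.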
# [2] = biological target: Gal(b1-3)GlcNAc(b1-6)GalNAc
# How it was run: as §1
# [3] = biological target: Gal(b1-3)GlcNAc(b1-6)[Gal(b1-3)]GalNAc
# How it was run: as §1
# Gal(b1-3)GlcNAc6S = biological target: Gal(b1-3)GlcNAc6S
# How it was run: as §1
# [4] = biological target: Gal(b1-3)[Fuc(a1-4)]GlcNAc
# How it was run: as §1
# [5] = biological target: Gal(b1-3)[Fuc(a1-4)]GlcNAc(b1-2)Man
# How it was run: as §1
# [6] = biological target: Gal(b1-3)[Fuc(a1-4)]GlcNAc(b1-2)Man(a1-3)[Gal(b1-3)[Fuc(a1-4)]GlcNAc(b1-2)Man(a1-6)]Man(b1-4)GlcNAc(b1-4)[Fuc(a1-6)]GlcNAc
# How it was run: as §1
# [7] = biological target: Gal(b1-3)[Fuc(a1-4)]GlcNAc(b1-3)Gal(b1-3)[Fuc(a1-4)]GlcNAc
# How it was run: as §1
# [8] = biological target: Gal(b1-3)[Fuc(a1-4)]GlcNAc(b1-3)Gal(b1-4)GlcNAc
# How it was run: as §1
# [9] = biological target: Gal(b1-3)[Fuc(a1-4)]GlcNAc(b1-3)Gal(b1-4)[Fuc(a1-3)]GlcNAc
# How it was run: as §1
# [10] = biological target: Gal(b1-3)[Fuc(a1-4)]GlcNAc(b1-6)GalNAc
# How it was run: as §1
# [11] = biological target: Gal(b1-3)[GlcNAc(b1-6)]GalNAc
# How it was run: as §1
# [12] = biological target: Gal(b1-3)[GlcNAc(b1-6)]GlcNAc
# How it was run: as §1
# [13] = biological target: Gal(b1-3)[Neu5Ac(a2-6)]GalNAc
# How it was run: as §1
# [14] = biological target: Gal(b1-3)[Neu5Ac(a2-6)]GlcNAc
# How it was run: as §1
# [15] = biological target: Gal(b1-3)[Neu5Ac(a2-6)]GlcNAc(a1-4)Gal(b1-4)Glc
# How it was run: as §1
# [16] = biological target: Gal(b1-3)[Neu5Ac(a2-6)]GlcNAc(b1-4)Gal(b1-4)Glc
# How it was run: as §1
# [17] = biological target: Gal(b1-3)[Neu5Ac(a2-6)]GlcNAc(b1-6)Gal(b1-4)Glc
# How it was run: as §1
# [18] = biological target: Gal(b1-3)[Neu5Ac(b2-6)]GalNAc
# How it was run: as §1
# [19] = biological target: Gal(b1-3)[Neu5Ac(b2-6)]GlcNAc
# How it was run: as §1
# Gal(b1-4)Gal = biological target: Gal(b1-4)Gal
# How it was run: as §1
# [20] = biological target: Gal(b1-4)GalNAc(a1-3)[Fuc(a1-2)]Gal(b1-4)GlcNAc
# How it was run: as §1
# [21] = biological target: Gal(b1-4)GalNAc(b1-3)[Fuc(a1-2)]Gal(b1-4)GlcNAc
# How it was run: as §1
# Gal(b1-4)Glc = biological target: Gal(b1-4)Glc
# How it was run: as §1
# Gal(b1-4)Glc6S = biological target: Gal(b1-4)Glc6S
# How it was run: as §1
# Gal(b1-4)GlcNAc = biological target: Gal(b1-4)GlcNAc
# How it was run: as §1
# [22] = biological target: Gal(b1-4)GlcNAc(a1-6)Gal(b1-4)GlcNAc
# How it was run: as §1
# Gal(b1-4)GlcNAc(b1-2)Man = biological target: Gal(b1-4)GlcNAc(b1-2)Man
# How it was run: as §1
# [23] = biological target: Gal(b1-4)GlcNAc(b1-2)Man(a1-3)Man(b1-4)GlcNAc(b1-4)GlcNAc
# How it was run: as §1
# [24] = biological target: Gal(b1-4)GlcNAc(b1-2)Man(a1-3)[Gal(b1-4)GlcNAc(b1-2)Man(a1-6)]Man(b1-4)GlcNAc(b1-4)GlcNAc
# How it was run: as §1
# [25] = biological target: Gal(b1-4)GlcNAc(b1-2)Man(a1-3)[Gal(b1-4)GlcNAc(b1-2)Man(a1-6)]Man(b1-4)GlcNAc(b1-4)[Fuc(a1-6)]GlcNAc
# How it was run: as §1
# [26] = biological target: Gal(b1-4)GlcNAc(b1-2)Man(a1-3)[Gal(b1-4)GlcNAc(b1-2)Man(a1-6)][Gal(b1-4)GlcNAc(b1-4)]Man(b1-4)GlcNAc(b1-4)[Fuc(a1-6)]GlcNAc
# How it was run: as §1
# [27] = biological target: Gal(b1-4)GlcNAc(b1-2)Man(a1-3)[Gal(b1-4)GlcNAc(b1-2)Man(a1-6)][GlcNAc(b1-4)]Man(b1-4)GlcNAc(b1-4)[Fuc(a1-6)]GlcNAc
# How it was run: as §1
# [28] = biological target: Gal(b1-4)GlcNAc(b1-2)Man(a1-3)[GlcNAc(b1-2)Man(a1-6)]Man(b1-4)GlcNAc(b1-4)GlcNAc
# How it was run: as §1
# [29] = biological target: Gal(b1-4)GlcNAc(b1-2)Man(a1-3)[GlcNAc(b1-4)][Gal(b1-4)GlcNAc(b1-2)Man(a1-6)]Man(b1-4)GlcNAc(b1-4)GlcNAc
# How it was run: as §1
# [30] = biological target: Gal(b1-4)GlcNAc(b1-2)Man(a1-3)[Man(a1-6)]Man(b1-4)GlcNAc(b1-4)GlcNAc
# How it was run: as §1
# [31] = biological target: Gal(b1-4)GlcNAc(b1-2)Man(a1-6)Man(b1-4)GlcNAc(b1-4)GlcNAc
# How it was run: as §1
# [32] = biological target: Gal(b1-4)GlcNAc(b1-2)Man(a1-6)[GlcNAc(b1-2)Man(a1-3)]Man(b1-4)GlcNAc(b1-4)GlcNAc
# How it was run: as §1
# [33] = biological target: Gal(b1-4)GlcNAc(b1-2)Man(a1-6)[Man(a1-3)]Man(b1-4)GlcNAc(b1-4)GlcNAc
# How it was run: as §1
# [34] = biological target: Gal(b1-4)GlcNAc(b1-2)[Gal(b1-4)GlcNAc(b1-4)]Man(a1-3)[Gal(b1-4)GlcNAc(b1-2)Man(a1-6)]Man(b1-4)GlcNAc(b1-4)GlcNAc
# How it was run: as §1
# [35] = biological target: Gal(b1-4)GlcNAc(b1-2)[Gal(b1-4)GlcNAc(b1-4)]Man(a1-3)[Gal(b1-4)GlcNAc(b1-2)[Gal(b1-4)GlcNAc(b1-6)]Man(a1-6)]Man(b1-4)GlcNAc(b1-4)GlcNAc
# How it was run: as §1
# [36] = biological target: Gal(b1-4)GlcNAc(b1-2)[Gal(b1-4)GlcNAc(b1-4)]Man(a1-3)[GlcNAc(b1-4)][Gal(b1-4)GlcNAc(b1-2)Man(a1-6)]Man(b1-4)GlcNAc(b1-4)GlcNAc
# How it was run: as §1
# [37] = biological target: Gal(b1-4)GlcNAc(b1-2)[Gal(b1-4)GlcNAc(b1-4)]Man(a1-3)[GlcNAc(b1-4)][Gal(b1-4)GlcNAc(b1-2)[Gal(b1-4)GlcNAc(b1-6)]Man(a1-6)]Man(b1-4)GlcNAc(b1-4)GlcNAc
# How it was run: as §1
# [38] = biological target: Gal(b1-4)GlcNAc(b1-2)[Gal(b1-4)GlcNAc(b1-6)]Man(a1-6)[Gal(b1-4)GlcNAc(b1-2)Man(a1-3)]Man(b1-4)GlcNAc(b1-4)GlcNAc
# How it was run: as §1
# [39] = biological target: Gal(b1-4)GlcNAc(b1-2)[Gal(b1-4)GlcNAc(b1-6)]Man(a1-6)[Gal(b1-4)GlcNAc(b1-2)Man(a1-3)]Man(b1-4)GlcNAc(b1-4)[Fuc(a1-6)]GlcNAc
# How it was run: as §1
binder,measurement,setting,value
B1,glycan array binding signal (z-score),[1],-0.058
same,glycan array binding signal (z-score),[2],-0.399
same,glycan array binding signal (z-score),[3],-0.151
same,glycan array binding signal (z-score),Gal(b1-3)GlcNAc6S,-0.34
same,glycan array binding signal (z-score),[4],-0.207
same,glycan array binding signal (z-score),[5],-0.193
same,glycan array binding signal (z-score),[6],0.031
same,glycan array binding signal (z-score),[7],-0.206
same,glycan array binding signal (z-score),[8],-0.389
same,glycan array binding signal (z-score),[9],-0.319
same,glycan array binding signal (z-score),[10],0.223
same,glycan array binding signal (z-score),[11],0.04
same,glycan array binding signal (z-score),[12],-0.632
same,glycan array binding signal (z-score),[13],-0.277
same,glycan array binding signal (z-score),[14],-0.453
same,glycan array binding signal (z-score),[15],-0.403
same,glycan array binding signal (z-score),[16],-0.257
same,glycan array binding signal (z-score),[17],-0.332
same,glycan array binding signal (z-score),[18],-0.336
same,glycan array binding signal (z-score),[19],-0.518
same,glycan array binding signal (z-score),Gal(b1-4)Gal,-0.131
same,glycan array binding signal (z-score),[20],-0.342
same,glycan array binding signal (z-score),[21],-0.444
same,glycan array binding signal (z-score),Gal(b1-4)Glc,-0.28
same,glycan array binding signal (z-score),Gal(b1-4)Glc6S,-0.191
same,glycan array binding signal (z-score),Gal(b1-4)GlcNAc,-0.171
same,glycan array binding signal (z-score),[22],-0.286
same,glycan array binding signal (z-score),Gal(b1-4)GlcNAc(b1-2)Man,-0.192
same,glycan array binding signal (z-score),[23],-0.363
same,glycan array binding signal (z-score),[24],-0.302
same,glycan array binding signal (z-score),[25],-0.208
same,glycan array binding signal (z-score),[26],-0.351
same,glycan array binding signal (z-score),[27],-0.287
same,glycan array binding signal (z-score),[28],-0.193
same,glycan array binding signal (z-score),[29],-0.109
same,glycan array binding signal (z-score),[30],-0.15
same,glycan array binding signal (z-score),[31],-0.209
same,glycan array binding signal (z-score),[32],-0.356
same,glycan array binding signal (z-score),[33],-0.242
same,glycan array binding signal (z-score),[34],-0.005
same,glycan array binding signal (z-score),[35],-0.342
same,glycan array binding signal (z-score),[36],-0.278
same,glycan array binding signal (z-score),[37],-0.184
same,glycan array binding signal (z-score),[38],-0.372
same,glycan array binding signal (z-score),[39],-0.3
